Assay results as given in the RNAGym collection of RNA variant scans (doi:10.1093/nar/gkz1192).
Read counts are not given, so values of variants with three or more changes are uncertain.

B1: CPEB3 Ribozyme (parent)
chain: UAACAGGGGGCCACAGCAGAAGCGUUCACGUCGCAGCCCCUGUCAGAUUCUGGUGAAUCUGCGAAUUCUGCUGUAUAUCUC

Variants of: B1
Assay: self-cleavage, relative activity (ratio to wild type); higher = more cleavage; in vitro, sequencing
Method in brief: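 CPEB3 self-cleaving ribozyme mutant libraries were made by rounds of error-prone PCR, barcoded, and transcribed in vitro with T7 RNA polymerase for 5 hours at 37°C. Cleavage occurred during transcription and a 15 min DNase I step before EDTA stop. RNAs were reverse transcribed with template switching and Illumina-sequenced, with DNA sequencing mapping barcodes to variants. Relative activity is the variant's cleaved/total read fraction divided by wild type's (minimum 5 reads), averaged across three batches.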

| Variant | self-cleavage |
| --- | --- |
| UAACAGGGGGCCACAGCAGAAGCGUCCACGUCGCAGCCCCUGUCGGAUUCUGGUGAAUCUGCGGAUUCUGCUGUAUAUCUC | 0.11 |
| UAACAGGGGGCCACAGCAGAAGCGUCCACGUCGCAGCCCCUGUCGGAUUCUGGUGAAUCUGCGUAUUCUGCUGUAAAUCUC | 0.15 |
| UAACAGGGGGCCACAGCAGAAGCGUCCACGUCGCAGCCCCUGUCGGAUUCUGGUGAAUCUGCGAGUUCGGCUGUAUAUCUC | 0.12 |
| UAACAGGGGGCCACAGCAGAAGCGUCCACGUCGCAGCCCCUGUCGGAUUCUGGUGAAUCUGAGAAUUCUGCUGUAUAUCUC | 0.15 |
| UAACAGGGGGCCACAGCAGAAGCGUCCACGUCGCAGCCCCUGUCGGAUUCUAGUGAAUCUGCGAAUUCUGCUGUAUAACUC | 0.38 |
| UAACAGGGGGCCACAGCAGAAGCGUCCACGUCGCAGCCCCUGUCGGAUUCUCGUGAAUCUGCGAAUUCUGCUGCAUAUCUU | 0.39 |
| UAACAGGGGGCCACAGCAGAAGCGUCCACGUCGCAGCCCCUGUCGGAUUCUGGUGAAUCUGCGAAUUCUGCUAUAUAUCUC | 0.69 |
| UAACAGGGGGCCACAGCAGAAGCGUCCACGUCGCAGCCCCUGUCGGAUCCUGGUGAAUCUGUGAAUUCUGCUGUAUACCUC | 0.32 |
| UAACAGGGGGCCACAGCAGAAGCGUCCACGUCGCAGCCCCUGUCGGAUUCUGGCGAAUCUGCGAAGUCUGCUGUAUAUCUC | 0.09 |
| UAACAGGGGGCCACAGCAGAAGCGUCCACGUCGCAGCCCCUGUCGGAUUCUGGUGAAUCUGCGAACUCUGCUGUAUAUCUC | 0.19 |
| UAACAGGGGGCCACAGCAGAAGCGUCCACGUCGCAGCCCCUGUCGGAUUCUGGUGAAUCUGCGAAUUCUGCUGCAUAUCUC | 0.28 |
| UAACAGGGGGCCACAGCAGAAGCGUCCACGUCGCAGCCCCUGUCGGAUUCUGGUGAAUCUGCGAAUUCUGCUGUAUAUCAC | 0.32 |
| UAACAGGGGGCCACAGCAGAAGCGUCCACGUCGCAGCCCCUGUCUGGCUCUGGUGAAUCUGCGAAUUCUGCUGUAUAUCUC | 0.15 |
| UAACAGGGGGCCACAGCAGAAGCGUCCACGUCGCAGCCCCUGUCUGAUUCUGGUGGAUCUGCGAAUUCUGCUGUAUAUCUC | 0.17 |
| UAACAGGGGGCCACAGCAGAAGCGUCCACGUCGCAGCCCCUGUCUGAAUCUGGUGAAUCUGCGAAUUCUGCUGUAUAUCUC | 0.2 |
| UAACAGGGGGCCACAGCAGAAGCGUCCACGUCGCAGCCCCUGUCUGACUCUGGUGAAUCUGCGAAUUCUGCUGUAUAUCUC | 0.32 |
| UAACAGGGGGCCACAGCAGAAGCGUCCACGUCGCAGCCCCUGUCUGACUCUGGUGAAACUGCGAAUUCUGCUGUAUAUCUC | 0.18 |
| UAACAGGGGGCCACAGCAGAAGCGUCCACGUCGCAGCCCCUGUCAGCUUCUGGUGAAUCUGCGAAUACUGCUGUAUAUCUC | 0.23 |
| UAACAGGGGGCCACAGCAGAAGCGUCCACGUCGCAGCCCCUGUCAGGUUCUGGUGGAUCAGCGUAUUCUGCUGUAUAUCUC | 0.17 |
| UAACAGGGGGCCACAGCAGAAGCGUCCACGUCGCAGCCCCUGUCAGGUUCUGGUGAGACUACGAAUCCUGCUGUAUAUCUC | 0.15 |
| UAACAGGGGGCCACAGCAGAAGCGUCCACGUCGCAGCCCCUGUCAGGUUCUGGUGAAUCUGCGGAUUCUGCUGUGUAUCUC | 0.19 |
| UAACAGGGGGCCACAGCAGAAGCGUCCACGUCGCAGCCCCUGUCAGGUUCUGGUGAAUCUGCGAAUUCUGCUAUAUAUCUC | 1.01 |
| UAACAGGGGGCCACAGCAGAAGCGUCCACGUCGCAGCCCCUGUCAGGUCCUGGUGAAUCUGAGAAUUCUGCUGUACAUCUC | 0.22 |

| Variant | self-cleavage |
| --- | --- |
| UAACAGGGGGCCACAGCAGAAGCGUCCACGUCGCAGCCCCUGUCAGGUUCAGGUGAACCUGCGAAUUCUGCUGUAUAUCUC | 0.51 |
| UAACAGGGGGCCACAGCAGAAGCGUCCACGUCGCAGCCCCUGUCAGGUUCUGGUGAAUCCGCGAAUCCUGCUGUAUAUCUC | 0.07 |
| UAACAGGGGGCCACAGCAGAAGCGUCCACGUCGCAGCCCCUGUCAGGUUCUGGUGAAUCUGCGAAUUCCGCUGUAUAUCUC | 0.17 |
| UAACAGGGGGCCACAGCAGAAGCGUCCACGUCGCAGCCCCUGUCAGGUUCUGGUGAAUCUGCGAAUUCUGCUGAAUAUCUC | 0.79 |
| UAACAGGGGGCCACAGCAGAAGCGUCCACGUCGCAGCCCCUGUCAGUUUCUGGUGAAUCCGCGAAUUCUGCUGUAUAUCUC | 0.14 |
| UAACAGGGGGCCACAGCAGAAGCGUCCACGUCGCAGCCCCUGUCAGAUUCUGGUGCACCAGCGUAUUCUGCUGUAUAUCUC | 0.14 |
| UAACAGGGGGCCACAGCAGAAGCGUCCACGUCGCAGCCCCUGUCAGAUUCUGGUGGGUCUGCGAAUUCUGCUGCAUAUCUC | 0.16 |
| UAACAGGGGGCCACAGCAGAAGCGUCCACGUCGCAGCCCCUGUCAGAUUCUGGUGGAUCUGCGUAUUCUGCUGUAUAUCUC | 0.14 |
| UAACAGGGGGCCACAGCAGAAGCGUCCACGUCGCAGCCCCUGUCAGAUUCUGGUGGAUCUGCGAGUUAUGCUGUAUAUCUC | 0.12 |
| UAACAGGGGGCCACAGCAGAAGCGUCCACGUCGCAGCCCCUGUCAGAUUCUGGUGGAUCUGCGAAUUCUGCUGUGUAUCUC | 0.26 |
| UAACAGGGGGCCACAGCAGAAGCGUCCACGUCGCAGCCCCUGUCAGAUUCUGGUGGACCUGCGAAUUCUGCUGUAUAUCAC | 0.1 |
| UAACAGGGGGCCACAGCAGAAGCGUCCACGUCGCAGCCCCUGUCAGAUUCUGGUGGAUCUGCGAAUACUGCUGUAUAUCUC | 0.58 |
| UAACAGGGGGCCACAGCAGAAGCGUCCACGUCGCAGCCCCUGUCAGAUUCUGGUGUAUCUGUGAAUUCUGCUGUAUAUCUC | 0.15 |
| UAACAGGGGGCCACAGCAGAAGCGUCCACGUCGCAGCCCCUGUCAGAUUCUGGUGUAUCUGCAAAUUCUGCGGUAUACCUC | 0.2 |
| UAACAGGGGGCCACAGCAGAAGCGUCCACGUCGCAGCCCCUGUCAGAUUCUGGUGUAUCCGCGAAUUCUGCAGUAUAUCUC | 0.11 |
| UAACAGGGGGCCACAGCAGAAGCGUCCACGUCGCAGCCCCUGUCAGAUUCUGGUGUAUCUGCGAAUUCCGCUGUAUAUCUC | 0.14 |
| UAACAGGGGGCCACAGCAGAAGCGUCCACGUCGCAGCCCCUGUCAGAUUCUGGUGACUCUGCGAAUUCUGCAGUAUAUCUC | 0.15 |
| UAACAGGGGGCCACAGCAGAAGCGUCCACGUCGCAGCCCCUGUCAGAUUCUGGUGAGUCUGCGUACUCUGCUGUAUAUCCC | 0.06 |
| UAACAGGGGGCCACAGCAGAAGCGUCCACGUCGCAGCCCCUGUCAGAUUCUGGUGAUUCUGCAAGUUCUGAUGUAUAUCUC | 0.07 |
| UAACAGGGGGCCACAGCAGAAGCGUCCACGUCGCAGCCCCUGUCAGAUUCUGGUGAUUCCGCGAAUUCUGCUGUGUAUCUC | 0.04 |
| UAACAGGGGGCCACAGCAGAAGCGUCCACGUCGCAGCCCCUGUCAGAUUCUGGUGAUUCUGCGAAUUCUGCAGUAUAUCUC | 0.12 |
| UAACAGGGGGCCACAGCAGAAGCGUCCACGUCGCAGCCCCUGUCAGAUUCUGGUGAAUCUGCGGUUUCUGCUGUAUAUCUC | 0.1 |
| UAACAGGGGGCCACAGCAGAAGCGUCCACGUCGCAGCCCCUGUCAGAUUCUGGUGAAUCUGCGGAUUCAGCUGUAUAUCUC | 0.17 |

| Variant | self-cleavage |
| --- | --- |
| UAACAGGGGGCCACAGCAGAAGCGUCCACGUCGCAGCCCCUGUCAGAUUCUGGUGAAUCUGCGGAUUCUGCUGCAUAUCUC | 0.6 |
| UAACAGGGGGCCACAGCAGAAGCGUCCACGUCGCAGCCCCUGUCAGAUUCUGGUGAAUCUGCGUAAUCUGCUGUACAUCUC | 0.22 |
| UAACAGGGGGCCACAGCAGAAGCGUCCACGUCGCAGCCCCUGUCAGAUUCUGGUGAAUCUGCGUACUCUGCUGUAUAUCUC | 0.12 |
| UAACAGGGGGCCACAGCAGAAGCGUCCACGUCGCAGCCCCUGUCAGAUUCUGGUGAAUCUGCGUAUACUGCUGUAUAUCUC | 0.09 |
| UAACAGGGGGCCACAGCAGAAGCGUCCACGUCGCAGCCCCUGUCAGAUUCUGGUGAAUCUGCGAGUUCAGCUGUAUAUCUC | 0.15 |
| UAACAGGGGGCCACAGCAGAAGCGUCCACGUCGCAGCCCCUGUCAGAUUCUGGUGAAUCUGCGAGUUCUGCCGUAUAUCUC | 0.14 |
| UAACAGGGGGCCACAGCAGAAGCGUCCACGUCGCAGCCCCUGUCAGAUUCUGGUGAAUCUGCGAGUUCUGCUGUAUACCUC | 0.13 |
| UAACAGGGGGCCACAGCAGAAGCGUCCACGUCGCAGCCCCUGUCAGAUUCUGGUGAAUCUGCGAAUUCUGCUGUGUGUCUC | 0.13 |
| UAACAGGGGGCCACAGCAGAAGCGUCAACGUCGCAGCCCCUGUCAGAUUUUGGUGAAUCUGCGAGUUCUGCUGUAUACCUC | 0.03 |
| UAACAGGGGGCCACAGCAGAAGCGUCAACGUCGCAGCCCCCGUCAGAUUCUGGUGAAUCCGCGAAUUCUGCCGUAUAUCUC | 0.06 |
| UAACAGGGGGCCACAGCAGAAGCGUCUACGUAGCAGCCCCUGUCAGAUUCUGGUGAAUCUGCGAAUUCUGCUGUAUAUCUC | 0.13 |
| UAACAGGGGGCCACAGCAGAAGCGUCUACGUCGCAGCCCCUGUCAGAUUCUGGUGAAUCCGCGAACUCUGCUGUAUAUCUC | 0.07 |
| UAACAGGGGGCCACAGCAGAAGCGUCCAAGUCGCAGCCCCUGUCAGAUUCUUGUGAAUCUGCGAAUUCUGCUGUAUAUCUC | 0.28 |
| UAACAGGGGGCCACAGCAGAAGCGUCCAAGUCGCAGCCCCUGUCAGAUUCAGGUGAGUCCGCGAAUUCUGCUGUAUACCUC | 0.19 |
| UAACAGGGGGCCACAGCAGAAGCGUCCAAGUCGCAGCCCCUGUCAGAUUCAGGUGAAUCUGCGAGUCCUGCUGUAUAUCUC | 0.15 |
| UAACAGGGGGCCACAGCAGAAGCGUCCAGGUCGCGGCCCCUGUCAGAUUCUGGUGAAUCUGCGAAUUCUGCAGUAUAUCUC | 0.17 |
| UAACAGGGGGCCACAGCAGAAGCGUCCAGGACGCAGCCCCUGUCAGACUCUGGUGAAUCUGCGAAUUCUGCUGUAUAUCUC | 0.19 |
| UAACAGGGGGCCACAGCAGAAGCGUCCAGGUCGCAGCCCCUGUCAGAUUCCGGUGAAUCUGCGAAUCCUGCUGUAUAUCUC | 0.04 |
| UAACAGGGGGCCACAGCAGAAGCGUCCAUGUCGCUGCCCCUGUCUGAUUCUGGUGGAUCUGCGAAUUCUGCUGUAUAUCUC | 0.19 |
| UAACAGGGGGCCACAGCAGAAGCGUCCAUGUCGCAGCCCCUGUCUGAUUCUGGUGAGUCUGCGAAUUCUGCUGUAUAUCUC | 0.08 |
| UAACAGGGGGCCACAGCAGAAGCGUCCAUGUCGCAGCCCCUGUCAGAGUCUGGUGAAUCUGCGAACUCUGCUGUAUAUCUC | 0.09 |
| UAACAGGGGGCCACAGCAGAAGCGUCCAUGUCGCAGCCCCUGUCAGAUUCAGGUGUAUCUGCGAAUUCUGCUGUAUAUCAC | 0.09 |
